The record followed here is the supplement of paper PMC10126150.

Sequences with one replicate were seen in a single cluster, so their values are uncertain.
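Note: ATP exposure 15 min at 22 °C before imaging.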

This series deals with ATP. Put plainly: switch fluorescence ratio, 500 uM ATP over buffer (Cy3 cluster intensity, sum of 5 cycles each) (fold (ratio)); higher = stronger signal-on switching upon ATP binding; sequences stand for … in TCGTCGGCAGCGTCAGATGTGTATAAGAGACAGTTTTTTTTTTTTTTTTTTTTTTTTT…TC. The conditions noted are these: aptamer strand: ATP DNA aptamer (quencher-CACCTGGGGGAGTATTGCGGAGGAAGG + anchor), 100 nM annealed; ATP concentration: 500 uM; one replicate. In outline:
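Five buffer/ATP imaging cycles were run on Cy3-labelled switching-strand clusters on a modified Illumina MiSeq flow-cell, with NaOH stripping and re-annealing between cycles. In each cycle, clusters annealed to 100 nM quencher-labelled ATP aptamer were imaged in selection buffer, then after 15 min with 500 uM ATP at 22 °C. Per cluster, the fluorescence ratio is summed target-cycle over summed buffer-cycle Cy3 intensity, averaged per switch-domain sequence. Only clusters within 100-1000 RFU were kept.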
Turning to TCCTGTGGGG, the switch fluorescence ratio worked out at 0.986.

As for GAATTTCAAC, the switch fluorescence ratio turned out to be 1.02.

As for TGTGTCCGGT, the switch fluorescence ratio was 0.971.

With ATATGGCAAC, the switch fluorescence ratio amounted to 0.974.

With GTCTTGATGG, the switch fluorescence ratio was found to be 0.989.

On to GGCGATACCG, for which the switch fluorescence ratio stood at 1.01.

Take GAAAGGGCGA: the switch fluorescence ratio came out at 0.932.

In the case of GCCATGGTAC, the switch fluorescence ratio was 1.06.

Consider AGGGTGGTGG, for which the switch fluorescence ratio came out at 0.995.

As to CCTCATAGAT, the switch fluorescence ratio stood at 1.52.

Regarding GCTAGAGGCG, the switch fluorescence ratio was found to be 1.01.

For GCGTGATGGC, the switch fluorescence ratio turned out to be 1.07.

TAGAATTCTA: the switch fluorescence ratio amounted to 1.02.

As for ATTATAGGGA, the switch fluorescence ratio amounted to 0.984.

Turning to AGTAATGGTC, the switch fluorescence ratio came out at 1.1.

For the sequence AGTTTCTTCA, the switch fluorescence ratio worked out at 1.04.

With AGCCTGTCG, the switch fluorescence ratio was 0.981.

In the case of GAGATGGACT, the switch fluorescence ratio was 1.01.

Regarding AATTTGCCAA, the switch fluorescence ratio was 0.989.

CTTCATGTCG: the switch fluorescence ratio was determined as 0.959.

For the sequence GGGATATGAC, the switch fluorescence ratio worked out at 1.04.

On to TGCCGGGGTG, for which the switch fluorescence ratio is 1.02.

With AGTGCGTAGA, the switch fluorescence ratio worked out at 1.02.

For the sequence CAATAGGACT, the switch fluorescence ratio was 1.01.

Regarding CACATGAGTC, the switch fluorescence ratio worked out at 1.03.

Turning to CGATCATATA, the switch fluorescence ratio was 1.02.

For the sequence CTGGGACCGT, the switch fluorescence ratio worked out at 0.978.

As for TAACGCAATG, the switch fluorescence ratio came to 5.62.

Consider AGCGCTTACA, for which the switch fluorescence ratio is 1.01.

As to AGACTTGGCC, the switch fluorescence ratio turned out to be 1.04.

As for GGCCCCTTGC, the switch fluorescence ratio was 1.1.

For the sequence TAGCTAAATG, the switch fluorescence ratio was 1.06.

As for CAGACAAGTT, the switch fluorescence ratio is 1.01.

Consider ATACACAGAG, for which the switch fluorescence ratio is 1.02.

As for AACGACCTAG, the switch fluorescence ratio was determined as 0.987.

On to AACCTGAGT, for which the switch fluorescence ratio is 1.21.

For GAAGGACGTC, the switch fluorescence ratio came out at 1.04.

AGCTTGACGC: the switch fluorescence ratio came to 1.04.

On to AAGCTATTAT, for which the switch fluorescence ratio was determined as 1.02.

As for TGGTTAAAAC, the switch fluorescence ratio came out at 1.

In the case of CGGTAGTACA, the switch fluorescence ratio came out at 1.03.

As to TAGAGATTAT, the switch fluorescence ratio is 1.01.

On to CGGTCTTGTC, for which the switch fluorescence ratio was determined as 1.02.

Regarding CACGAGCCTT, the switch fluorescence ratio is 1.08.

With GATGTCAGAT, the switch fluorescence ratio turned out to be 1.03.

With ACATAGGGTG, the switch fluorescence ratio was 1.19.

Turning to CCTATCTTGC, the switch fluorescence ratio was found to be 1.04.

For ATATCTGGGG, the switch fluorescence ratio worked out at 0.972.

In the case of CACCGGGTTT, the switch fluorescence ratio is 1.12.

Turning to AAGGATTGGT, the switch fluorescence ratio is 0.997.

Regarding GTATTGAGGA, the switch fluorescence ratio is 0.98.

For CAAAGTCAAT, the switch fluorescence ratio is 1.1.

As to AAAGCAGCTC, the switch fluorescence ratio was found to be 1.09.

With AGGACAGTCT, the switch fluorescence ratio is 1.07.

As for AATTTACCTG, the switch fluorescence ratio is 1.04.

Turning to TGGCGAATGG, the switch fluorescence ratio was found to be 0.971.

Take TGCACAAGCG: the switch fluorescence ratio came to 0.982.

Take AAACATTTAC: the switch fluorescence ratio amounted to 1.16.

Turning to AAATCAGTGC, the switch fluorescence ratio came to 1.12.

As for TTACACATCT, the switch fluorescence ratio worked out at 0.995.

With AAGTTTGAGG, the switch fluorescence ratio worked out at 1.03.

Turning to CAGCTATAAC, the switch fluorescence ratio turned out to be 2.68.

As to AACGAATCCG, the switch fluorescence ratio came out at 0.978.

For the sequence GTTGAACATG, the switch fluorescence ratio came out at 0.983.

AGTAGTGAGA: the switch fluorescence ratio was determined as 1.01.

With AGTGTTACT, the switch fluorescence ratio is 0.985.

On to TTGCTGAATT, for which the switch fluorescence ratio was determined as 0.984.

On to AGGAGGCTTA, for which the switch fluorescence ratio stood at 0.928.

Consider GGCTCTACGA, for which the switch fluorescence ratio came out at 1.01.

As to GATCGTGTAA, the switch fluorescence ratio amounted to 1.01.

As to CGACCCTTTC, the switch fluorescence ratio was found to be 1.51.

As to TCCGCACCGG, the switch fluorescence ratio came to 1.29.

For the sequence TCTAGCTAAC, the switch fluorescence ratio is 1.42.

Consider CCTTGCGTCC, for which the switch fluorescence ratio was found to be 1.48.

Consider GAAAACCCTG, for which the switch fluorescence ratio was determined as 0.921.

As to TGACATAGAA, the switch fluorescence ratio stood at 0.97.

Consider CAGAGTTGAG, for which the switch fluorescence ratio was 0.957.

Consider AAACAAACGC, for which the switch fluorescence ratio was 1.1.

Take TATGTTTAAC: the switch fluorescence ratio stood at 1.09.

Turning to AGAAGTGGGA, the switch fluorescence ratio stood at 1.04.

Regarding TTTGGTGAGT, the switch fluorescence ratio came to 0.995.

For TAAGTGGTTC, the switch fluorescence ratio stood at 1.

TATGCGGTTT: the switch fluorescence ratio is 1.04.

With CTGGGGTTT, the switch fluorescence ratio is 0.975.

GAGAGATAAG: the switch fluorescence ratio was determined as 1.

In the case of TTAGGGAAGA, the switch fluorescence ratio was 1.3.

ACGGGCATAG: the switch fluorescence ratio was 1.06.

As to GTTATGCGTG, the switch fluorescence ratio is 0.989.

As for GGAGGTACA, the switch fluorescence ratio turned out to be 1.03.

As to ATTTTTGTAC, the switch fluorescence ratio is 0.97.

Turning to TATACCTGGT, the switch fluorescence ratio came to 1.02.

As for GCATCACATA, the switch fluorescence ratio was 1.05.

In the case of AAATCTCGTG, the switch fluorescence ratio was 1.

Consider GTTTTCTGAT, for which the switch fluorescence ratio came out at 1.01.

Consider GAGATGAATG, for which the switch fluorescence ratio worked out at 1.02.

On to GGACGTGTTT, for which the switch fluorescence ratio was found to be 0.975.

For CAAGGGAATA, the switch fluorescence ratio turned out to be 1.02.

Regarding AGTCAGTTAG, the switch fluorescence ratio was 1.02.

For the sequence GCCTTAGACG, the switch fluorescence ratio turned out to be 0.953.

For TGGTTTTTCT, the switch fluorescence ratio was 0.974.

Regarding CAGGCGCATT, the switch fluorescence ratio came to 1.81.

Consider TGTATAACAG, for which the switch fluorescence ratio was 1.01.

With ACTAGGAAGG, the switch fluorescence ratio stood at 0.99.

In the case of CTTGAGTTTC, the switch fluorescence ratio turned out to be 1.01.

On to TAATATCCC, for which the switch fluorescence ratio stood at 1.03.

Consider GTGGTCAGAC, for which the switch fluorescence ratio was determined as 0.955.

On to ATCATCGACT, for which the switch fluorescence ratio was determined as 0.974.

Take GAATTCCTCT: the switch fluorescence ratio was 1.02.

Regarding TAGCAGCCTT, the switch fluorescence ratio was 1.04.

For ATAAAATGTA, the switch fluorescence ratio turned out to be 0.955.

CAGCTCAGGA: the switch fluorescence ratio worked out at 1.02.

Regarding CGAATCTTTC, the switch fluorescence ratio worked out at 1.26.

As for ATGTCAATCG, the switch fluorescence ratio stood at 0.981.

As for TAGTAGACCA, the switch fluorescence ratio turned out to be 0.984.

Take CTTTACGTTC: the switch fluorescence ratio is 1.04.

CACGAGAGGT: the switch fluorescence ratio came to 1.02.

Take TATCGTCC: the switch fluorescence ratio turned out to be 0.932.

Take ATACGGGCAT: the switch fluorescence ratio is 0.985.

Consider TCTTGAAGA, for which the switch fluorescence ratio amounted to 0.98.

Take GCGCGGGGAC: the switch fluorescence ratio worked out at 1.07.
